Test results from paper PMC4336329 (PLoS ONE, 2015).
Hit rate of the full screen: of about 310,000 compounds, about 2,200 (0.71%) showed an effect of 50% or more. Effects have a minus sign here. Some of the results follow.

target: human ether-à-go-go-related gene (hERG) potassium channel (human, UniProt Q12809); test: primary screen, population patch clamp on CHO cells stably expressing hERG
Sequence (Q12809 whole entry, looked up): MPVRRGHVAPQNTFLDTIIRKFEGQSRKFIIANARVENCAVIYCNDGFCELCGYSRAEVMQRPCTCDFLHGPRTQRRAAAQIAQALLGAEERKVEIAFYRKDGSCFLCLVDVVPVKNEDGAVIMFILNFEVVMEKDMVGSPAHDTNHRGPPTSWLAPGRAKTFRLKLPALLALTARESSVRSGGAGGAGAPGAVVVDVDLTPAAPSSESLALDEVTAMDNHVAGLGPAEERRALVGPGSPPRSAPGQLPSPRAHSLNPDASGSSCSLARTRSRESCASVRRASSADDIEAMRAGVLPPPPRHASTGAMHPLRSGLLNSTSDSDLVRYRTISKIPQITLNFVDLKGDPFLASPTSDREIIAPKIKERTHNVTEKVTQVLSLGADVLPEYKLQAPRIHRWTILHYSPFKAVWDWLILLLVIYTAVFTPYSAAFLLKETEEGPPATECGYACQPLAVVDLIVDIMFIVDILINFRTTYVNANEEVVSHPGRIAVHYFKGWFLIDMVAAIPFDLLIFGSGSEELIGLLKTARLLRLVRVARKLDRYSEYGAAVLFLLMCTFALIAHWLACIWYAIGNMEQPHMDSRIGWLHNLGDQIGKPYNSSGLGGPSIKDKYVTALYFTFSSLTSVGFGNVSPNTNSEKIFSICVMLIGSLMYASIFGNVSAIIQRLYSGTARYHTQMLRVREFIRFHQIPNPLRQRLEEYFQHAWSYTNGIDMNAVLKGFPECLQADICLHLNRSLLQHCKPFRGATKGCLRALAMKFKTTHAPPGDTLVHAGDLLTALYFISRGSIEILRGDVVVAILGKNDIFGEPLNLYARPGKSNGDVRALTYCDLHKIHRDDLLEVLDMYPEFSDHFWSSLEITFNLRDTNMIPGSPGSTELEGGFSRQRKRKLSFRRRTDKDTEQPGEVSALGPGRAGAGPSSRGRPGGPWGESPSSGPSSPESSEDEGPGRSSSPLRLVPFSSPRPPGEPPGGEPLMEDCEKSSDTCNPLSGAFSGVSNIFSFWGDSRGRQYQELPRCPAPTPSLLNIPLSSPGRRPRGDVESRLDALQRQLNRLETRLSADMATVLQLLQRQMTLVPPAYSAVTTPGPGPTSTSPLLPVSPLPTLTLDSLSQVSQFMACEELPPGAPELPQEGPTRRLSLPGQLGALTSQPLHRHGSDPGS

Row | Compound | hERG current change (%, negative = inhibition) at 1uM
1 | CCN(CCn1cccn1)C(=O)c1cc(COc2c(F)cccc2F)on1 | 5.53%
2 | c1ccc(OCCOCCSc2ncccn2)cc1 | 11%
3 | O=C(NCCN1C(=O)S/C(=C\c2ccc(F)cc2)C1=O)c1cccc(S(=O)(=O)N2CCOCC2)c1 | 9.39%
4 | CCOC(=O)/C(C#N)=C1/C=C(C)NC(c2ccccc2O)=N1 | 11.7%
5 | Cc1cc(C)nc(NS(=O)(=O)c2ccc(N/C=C/C(=O)c3ccc(Cl)cc3)cc2)n1 | -4.41%
6 | O=C(/C=C/c1cccs1)c1cc(Br)ccc1OC(=O)N1CCOCC1 | -1.22%
7 | CCCC(CCC(=O)Nc1ccn(-c2ccccc2)n1)C(=O)O (stereo not drawn) | 8.13%
8 | COc1ccc(-n2nc3c(c2NC(=O)c2cc4ccccc4o2)CS(=O)(=O)C3)cc1 | -5.18%
9 | CC(C)c1ccc(/C=N/NC(=O)c2cccc(S(=O)(=O)N3CCOCC3)c2)cc1 | 10.5%
10 | Cc1ccc(N=C2NC(=O)c3cccc([N+](=O)[O-])c32)cc1 | 3.07%
11 | COc1cc(C(=S)N2CCOCC2)ccc1OC(=O)c1ccc(Br)cc1 | 8.85%
12 | Cc1csc(NC(=O)C2CSC3(C)CCC(=O)N23)n1 (stereo not drawn) | 8.58%
13 | CCOc1ccccc1NC(=O)C(=O)N/N=C/c1ccc([N+](=O)[O-])cc1 | -13.7%
14 | CC(=O)Nc1cccc(NS(=O)(=O)c2cn(C)c(=O)n(C)c2=O)c1 | -6.58%
15 | COc1ccc(OCCCC(=O)OCC(=O)Nc2nnc(-c3ccccc3)o2)cc1 | 5.71%
16 | CN1CCN(c2ccc(S(=O)(=O)N3CCCCC3)cc2NC(=O)Cc2ccc(Cl)cc2)CC1 | -50.6%
17 | N#Cc1cc(Cl)c(NCC2CCCO2)cc1C#N (stereo not drawn) | 16.7%
18 | COc1ccc(NC(=O)CN(C)C(=O)CN2C(=O)c3ccc([N+](=O)[O-])cc3C2=O)cc1 | 6.32%
19 | O=C(Nc1ccccc1C(=O)NC1CCCCC1)c1ccccc1 | 3.09%
20 | CC(C)CC1(C)N=C(c2ccccc2)C(=S)N1 (stereo not drawn) | 13.6%
21 | O=C(NCc1ccncc1)c1c(F)c(F)c(F)c(F)c1F | 6.44%
22 | Cc1nc(SCc2ccc(Cl)c(Cl)c2)ncc1C(=O)O | 8.46%
23 | COc1ccc(-c2nc(-c3ccc(NC(=O)c4ccc(Br)o4)cc3)no2)cc1OC | 10.6%

Row | Compound | hERG current change (%, negative = inhibition) at 1uM
24 | COc1ccc(N(Cc2cc3cc(OC)ccc3[nH]c2=O)S(C)(=O)=O)cc1 | 13.4%
25 | COc1cccc(C2Cc3ccccc3C(=O)O2)c1 (stereo not drawn) | 9.13%
26 | COCc1cccc(C(=O)NC(c2ccccc2)c2ccccc2)c1 | -10.1%
27 | CCCn1c(C)cc(/C=C(\C#N)C(=O)OCC(=O)NC(=O)NC(C)(C)C)c1C | 7.56%
28 | O=C1N(c2ccccc2)C(=Nc2ccccc2)SC12CC2 | 20%
29 | Cc1ccc(C2N(c3ccc(Cl)cc3)C(=O)N3CCCN23)cc1 (stereo not drawn) | 4.83%
30 | COc1cccc(NC(=O)CC(=O)c2ccc([N+](=O)[O-])cc2)c1 | 0.51%
31 | CC(C)N1C(=O)CCC1C(=O)NCCc1ccc(Cl)cc1 (stereo not drawn) | 6.79%
32 | COC(=O)CSc1nnc(SCc2ccccc2)s1 | 12.5%
33 | Cc1ccc(C)c(C(=O)CC2(O)C(=O)N(C)c3ccccc32)c1 (stereo not drawn) | 12.3%
34 | CC(C)c1ccc(-n2ccnc2SCC(=O)O)cc1 | 8.94%
35 | O=C(COC(=O)c1cccc(Cl)c1Cl)NCc1cccs1 | 8.1%
36 | Cc1cccc(N2CCN(CC(=O)NCC3CCCCC3)CC2)c1C.Cl | 2.11%
37 | O=C(CN1CCN(Cc2ccc3c(c2)OCO3)CC1)c1c[nH]c2ccccc12 | -31.4%
38 | CCCCn1c(N)c(N(CC(C)C)C(=O)C2CCN(S(=O)(=O)c3ccccc3)CC2)c(=O)[nH]c1=O | 3.22%
39 | COc1ccc(C2C(C(=O)c3ccco3)=C(O)C(=O)N2CC2CCCO2)c(OC)c1 (stereo not drawn) | 21.2%
40 | C/C(Cn1nnc([N+](=O)[O-])n1)=N\NC(=O)c1ccccc1 | 4.41%
41 | Cc1ccc(-n2c(C(C)n3nc(C)c([N+](=O)[O-])c3C)n[nH]c2=S)cc1 (stereo not drawn) | -4.1%
42 | COc1cc(C2c3c(oc4ccccc4c3=O)C(=O)N2CCN2CCOCC2)cc(OC)c1OC (stereo not drawn) | 0.056%
43 | Cc1ccc2[nH]c(=O)c(-c3noc(C(C)C)n3)cc2c1 | 4.76%
44 | Cc1ccc(NC(=O)CCNC(=O)Nc2ccccc2)cc1S(=O)(=O)N(C)C | 5.54%
45 | FC(F)Sc1ccc(-n2c(-c3ccc(Cl)cc3)c[n+]3c2CCC3)cc1.[Br-] | -32.9%
46 | CCOC(=O)N1CCN(C(=O)CN(c2ccccc2OC)S(=O)(=O)c2ccc(C)cc2)CC1 | 0.0178%

Row | Compound | hERG current change (%, negative = inhibition) at 1uM
47 | Cc1ccc(NC(=O)CSc2n[nH]c(-c3ccco3)n2)cc1 | 8.19%
48 | CCOC(=O)c1c(NC(C)=O)sc2c1CCCNC2=O | 6.21%
49 | COc1ccc(N(CC(=O)NCCSCc2ccc(Cl)cc2)S(C)(=O)=O)cc1Cl | 15%
50 | CCN(CC)CCCNc1oc(-c2cccc(Cl)c2)nc1C#N | -14.9%
51 | Cc1c(CN2CCN(c3cccc(C(F)(F)F)c3)CC2)c(=O)n(-c2ccccc2)n1C | -18.4%
52 | CC(=O)NC(Cc1cc(C)ccc1C)C(=O)N1CCN(C(=O)Nc2ccc(C(C)=O)cc2)CC1 (stereo not drawn) | -2.7%
53 | O=[N+]([O-])c1cccc(-c2ccc(SCc3cccnc3)nn2)c1 | 0.911%
54 | CC1CC(C)CN(CCCNC(=O)Cn2ncc3c(=O)oc4ccccc4c32)C1 (stereo not drawn) | -12.3%
55 | O=C(Nc1ccc([N+](=O)[O-])cc1)N1CCCCC1 | 3.25%
56 | CC1=C(C(=O)Nc2ccccc2C(=O)NCCCN2CCN(C)CC2)SCCO1 | 14.4%
57 | O=C(COC(=O)c1nc(Cl)ccc1Cl)NC1CCCCC1 | 13.2%
58 | COc1ccc(CCNC(=O)Cn2nnc(-c3ccccc3F)n2)cc1OC | 10.1%
59 | O=S(=O)(c1ccc(F)c(Cl)c1)N1CCCC1 | 18.2%
60 | O=C(Nc1ccc(F)c(F)c1)c1ccccc1-c1ccccc1 | -2.6%
61 | NC(=O)c1ccc(Oc2ccc(C(N)=O)cc2)cc1 | 14.2%
62 | Nc1ccc(-c2nnn(Cc3ccccc3F)n2)cc1 | 5.25%
63 | CN1CCN(c2nc(N3CCN(c4ccccc4)CC3)ncc2F)CC1 | -10.4%
64 | Cc1cccc(-c2noc(CSc3ccccc3)n2)c1 | 14.6%
65 | CCCNC(=S)NNC(=O)c1cc(C2CC2)nc2ccccc12 | 16.1%
66 | O=C(NCc1ccco1)c1ccc(-c2csnn2)cc1 | 7.5%
67 | CCOC(=O)C1=C(COC(=O)c2ccc(Cl)cc2[N+](=O)[O-])NC(=O)NC1C (stereo not drawn) | 9.96%
68 | Cc1ccccc1OCCC(=O)N1CCN(S(=O)(=O)c2ccccc2F)CC1 | 12.5%
69 | Cc1cc(C(=O)CN2CCC(C)CC2)c(C)n1-c1ccccc1F | 21.2%

Row | Compound | hERG current change (%, negative = inhibition) at 1uM
70 | Cc1ncc(CSc2nc3ccccc3[nH]2)c(N)n1 | -12.8%
71 | CCCCCC1CC(CC(=O)O)C(=O)O1 (stereo not drawn) | 2.44%
72 | CCCOc1ccc(C(=O)NC(=S)NCc2cccnc2)cc1 | 7.19%
73 | Cc1nnc(SCc2ccc(C(=O)Nc3cc(Cl)ccc3C)cc2)s1 | 7.6%
74 | CCOC(=O)C(=O)N/N=C/c1cccc(Br)c1 | 11.2%
75 | COc1cc(C(=O)N(Cc2ccccn2)CC2CCCO2)cc(OC)c1OC.Cl (stereo not drawn) | 1.8%
76 | Cc1ccc(C(=O)OCC(=O)N2CCc3ccccc32)cc1 | 15%
77 | CCCc1nnc(SCC(=O)N2CCCC(C)C2)n1CC1CCCO1 (stereo not drawn) | 13.7%
78 | Cc1cccc(NP(=O)(Oc2ccccc2)Oc2ccccc2)c1C | 8.04%
79 | Cc1nc(NC(=O)c2cc3c(C)nn(-c4ccccc4)c3s2)sc1C(=O)Nc1ccccc1 | 10.3%
80 | CCN(CC)C1=N/C(=C\c2ccco2)C(=O)N1c1ccccc1 | 4.65%
81 | CCOC(=O)c1cc(C(C)=O)c(=O)n(C)c1N | 16.6%
82 | Cc1cc(NC(=O)/C(C#N)=C/c2ccc(-c3cccc(C(F)(F)F)c3)o2)n(-c2ccccc2)n1 | -2.89%
83 | CC(OC(=O)CC1CCCCC1)C(=O)Nc1cccc(C#N)c1 (stereo not drawn) | 6.92%
84 | CCc1noc(C)c1C(=O)Nc1nc(-c2ccc(Cl)cc2Cl)cs1 | 5.95%
85 | Cc1ccc(-n2c(O)c(C=N)c(=O)n(-c3ccc(C)cc3)c2=O)cc1 | -2.88%
86 | c1csc(C2CCCN2c2nc3nonc3nc2NC2CC2)n1 (stereo not drawn) | 8.42%
87 | NS(=O)(=O)c1ccc(CNC(=O)NC23CC4CC(CC(C4)C2)C3)cc1 | -4.47%
88 | COc1cccc(Oc2cc(Cl)nc(N)n2)c1 | 7.9%
89 | COCCCN1C(=O)CS/C1=N\S(=O)(=O)c1ccccc1 | 7.54%
90 | CCn1ncc(/C=C2/SC(=S)NC2=O)c1C | 13.9%
